Results reported in PubChem BioAssay AID1745853 (National Center for Advancing Translational Sciences (NCATS), 2022).
The list shows a part of the results. Shown are side measurements of this screen, not its main read-out; they come without a call.

How the values were obtained:
Assay in all cases: Primary Screen for Target Class Profiling of Small Molecule Inhibitors of Methyltransferases
[1] = target: Guanidinoacetate N-methyltransferase (Homo sapiens) (UniProt Q14353); details: purified enzyme, MTase-Glo SAH luminescence; measured here: GAMT inhibition; at 40 µM; stronger effect = lower value
Outline: (§1)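 Each enzyme was reacted with SAM and its substrate, with compounds tested once at 40 uM; SAH formed was read by MTase-Glo luminescence.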

[2] = target: Nicotinamide N-methyltransferase (Homo sapiens) (UniProt P40261); details: purified enzyme, MTase-Glo SAH luminescence; measured here: NNMT inhibition; at 40 µM; stronger effect = lower value
Outline: as §1

[3] = target: Phenylethanolamine N-methyltransferase (Homo sapiens) (UniProt P11086); details: purified enzyme, MTase-Glo SAH luminescence; measured here: PNMT inhibition; at 40 µM; stronger effect = lower value
Outline: as §1

[4] = target: Glycine N-methyltransferase (Homo sapiens) (UniProt Q14749); details: purified enzyme, MTase-Glo SAH luminescence; measured here: GNMT inhibition; at 40 µM; stronger effect = lower value
Outline: as §1

[5] = target: Histamine N-methyltransferase (Homo sapiens) (UniProt P50135); details: purified enzyme, MTase-Glo SAH luminescence; measured here: HNMT inhibition; at 40 µM; stronger effect = lower value
Outline: as §1
% is set by controls: 0 for no effect and ±100 for the full control effect.

SMILES | activity change, negative = inhibition [1] | activity change, negative = inhibition [2] | activity change, negative = inhibition [3] | activity change, negative = inhibition [4] | activity change, negative = inhibition [5]
CC(C)(C)n1nc(-c2ccc(Cl)cc2)c2c(N)ncnc21 | 0.509% | -35.3% | -2.48% |  | 
CCOCCCNC(=O)N1CCn2c(C)ccc2C1C(C)C (stereo not drawn) | 0% | -5.2% | 3.22% | 16.4% | 0.676%
CC1CCCCN1c1nc2c(S(=O)(=O)c3ccccc3)nnn2c2ccc(Cl)cc12 (stereo not drawn) | -0.207% | -5.78% | -9.71% | -8.57% | -7.01%
Cc1ccc(CNS(=O)(=O)c2cc3c(cc2C)n(C)c(=O)n3C)cc1 | 0% | -4.54% | -0.977% | 1.77% | -4.59%
CCCCN1C(=O)c2cc(C(=O)NCc3ccccc3OCC)nn2CC1(C)C(=O)NC1CCCC1 (stereo not drawn) | 1.38% | 1.53% | 4.14% | 7.46% | 4.27%
CCN(CC1CCN(CCc2ccccc2C)CC1)C(=O)c1csc(C)n1 | -0.616% | -1.39% | 0.227% | -0.551% | -0.865%
CC1(C(=O)NC2CCCCCC2)Cn2c(cc3sccc32)C(=O)N1CCc1ccccc1 (stereo not drawn) | 3.04% | -1.99% | -4.41% | -2.27% | 0.968%
Cn1c2c(c3ccccc31)C(C(=O)NCc1ccccc1)N(c1cccc(C(F)(F)F)c1)C(=O)CS2 (stereo not drawn) | 3.06% | -2.08% | 0.008% | 6.02% | 4.92%
Cc1cn(CC(=O)N[C@@H]2COCC[C@@H]2OCC2CC2)c(=O)[nH]c1=O | -7.91% | -14.6% | 8.8% | -4.41% | -2.21%
O=C(Nc1ccccc1)N1CCN(Cc2ccc3ccccc3n2)CC1 | 1.81% | -15.8% | -1.96% | -5.46% | 9.29%
COc1cc2c(cc1NS(C)(=O)=O)C(c1cccc3c1OCO3)CC(=O)N2 (stereo not drawn) | -1.44% | -10.7% | 10% | -4.11% | -0.362%
CC(=O)OC[C@]12[C@H](OC(C)=O)C(=O)[C@@H]3[C@@H](OC(C)=O)[C@@]14O[C@@]3(C)COC(=O)c1cccnc1[C@@H](C)[C@H](C)C(=O)O[C@@H]([C@H](O)[C@@H]2OC(C)=O)[C@]4(C)O | 1.17% | -10.5% | -2.41% | 1.91% | 4.47%
Cc1cc(F)ccc1NC(=O)c1cc2n(n1)CC(C)(C(=O)NC1CCCCCC1)N(C)C2=O (stereo not drawn) | 2.31% | -0.241% | -1.59% | 0.293% | 0.368%
COc1cc(CCC2=NN=C(NC(=O)c3ccc(N4C[C@@H](C)N[C@@H](C)C4)cc3)C2)cc(OC)c1 | 9.55% | -14.4% | -8.86% | -8.76% | -35.6%
CCOC(=O)c1ccc2c(c1)C1C=CCC1C(c1ccc(OC(C)=O)cc1OC(C)=O)N2 (stereo not drawn) | 1.71% | -6.27% | -20.2% | -8.61% | -1.61%
